Among all 310,000 compounds or so, about 14,000 (4.5%) showed an effect of 50% or more. The effect is printed as a negative number. Some of the results follow.
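Note: peak tail current of the secondary pulse compared with the same well before compound.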

Chain of human ether-à-go-go-related gene (hERG) potassium channel (Q12809 whole entry, looked up): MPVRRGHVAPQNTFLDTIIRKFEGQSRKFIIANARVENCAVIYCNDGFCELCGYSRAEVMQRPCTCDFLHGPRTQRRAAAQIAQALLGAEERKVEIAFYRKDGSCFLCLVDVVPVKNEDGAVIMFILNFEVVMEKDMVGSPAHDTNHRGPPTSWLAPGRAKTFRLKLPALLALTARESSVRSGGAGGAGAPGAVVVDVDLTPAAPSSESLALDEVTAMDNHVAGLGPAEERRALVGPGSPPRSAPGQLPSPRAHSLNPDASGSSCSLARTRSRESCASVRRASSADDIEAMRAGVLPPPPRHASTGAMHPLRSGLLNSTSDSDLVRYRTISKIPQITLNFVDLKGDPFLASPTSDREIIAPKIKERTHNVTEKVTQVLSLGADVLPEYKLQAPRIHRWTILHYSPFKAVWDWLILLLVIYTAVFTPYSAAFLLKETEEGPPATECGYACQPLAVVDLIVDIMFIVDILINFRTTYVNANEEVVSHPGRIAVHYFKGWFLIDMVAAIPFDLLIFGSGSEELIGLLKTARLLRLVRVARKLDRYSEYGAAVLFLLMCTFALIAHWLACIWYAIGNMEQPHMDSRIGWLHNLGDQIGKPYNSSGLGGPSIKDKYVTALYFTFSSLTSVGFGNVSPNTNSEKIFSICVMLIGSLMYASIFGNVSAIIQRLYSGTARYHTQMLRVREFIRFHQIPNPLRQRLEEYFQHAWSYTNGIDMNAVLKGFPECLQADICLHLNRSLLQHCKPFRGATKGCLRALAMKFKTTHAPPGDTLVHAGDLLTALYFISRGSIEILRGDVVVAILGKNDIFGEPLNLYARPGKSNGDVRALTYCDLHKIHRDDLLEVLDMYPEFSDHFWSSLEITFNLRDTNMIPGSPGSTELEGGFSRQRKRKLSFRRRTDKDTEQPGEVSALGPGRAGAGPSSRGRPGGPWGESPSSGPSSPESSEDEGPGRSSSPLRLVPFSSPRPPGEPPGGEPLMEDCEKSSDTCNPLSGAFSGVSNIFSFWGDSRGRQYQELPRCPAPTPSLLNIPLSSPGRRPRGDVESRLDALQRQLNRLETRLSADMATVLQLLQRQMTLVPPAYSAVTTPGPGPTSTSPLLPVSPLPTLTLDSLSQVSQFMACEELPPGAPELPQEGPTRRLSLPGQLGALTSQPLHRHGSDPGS

This test concerns the target human ether-à-go-go-related gene (hERG) potassium channel (human, UniProt Q12809). Nature of the test: primary screen, population patch clamp on CHO cells stably expressing hERG.
For `CSC1=NCCN1S(=O)(=O)c1ccc(C)cc1`, the “hERG current change (%, negative = inhibition) at 10uM” value is given as -13.8%.
Under `CCN(C(=O)c1cn(C)c(=O)c2cc(OC)c(OC)cc12)c1cc(C)ccc1C` stands -0.626%; under `CCNc1nc(N2CCCCC2)nc(-n2nnc(C(=O)OCC)c2C)n1`, -42.3%; under `COC(=O)C1=CO[C@@H](C)[C@@H]2CN3CC[C@]4(C(=O)Nc5ccccc54)[C@@H]3C[C@H]12`, 5.28%.
Under `CC(C)[C@H](NC(=O)NCc1ccc(Cl)cc1)C(=O)O` stands 2.45%; under `Cc1cc(OCCCCN2C(=O)NC(C)(C)C2=O)cc(C)c1Cl`, -8.79%; under `C[N+]1(C2CCC3CCCC2C3O)CCCCC1.[I-]` (centres unmarked), 17.7%.
On to `CN(C)c1ccc(/C=N/NC(=O)c2cccc(N3CCCC3=O)c2)cc1`, for which the “hERG current change (%, negative = inhibition) at 10uM” value was 12.7%.
Under `NC(=O)Cc1ncc(C(F)(F)F)cc1Cl` stands 21.8%; under `CN(C)CCOc1cccc(Br)c1.O=C(O)C(=O)O`, 0.472%.
With `CC(=O)c1c(C)oc2c1cc(NS(=O)(=O)c1ccc(C(=O)O)cc1)c1ccccc12` the figure was 14.3%.
With `CCOC(=O)c1sc2ncn(/N=C/c3cccnc3)c(=O)c2c1C` the figure was -16.1%; with `CC(C)(C)C1c2[nH]c3ccccc3c2CCN1CCCn1cccn1` (centres unmarked), -19.5%.
On to `Cc1ccc(CN2CCN(Cc3ccc4ncccc4c3)CC2CCO)cc1` (centres unmarked), for which the “hERG current change (%, negative = inhibition) at 10uM” value was -58.9%.
Under `O=C(Nc1cccc(Cl)c1)C1C2C=CC3(O2)C1C(=O)N(CCCN1CCCCC1)C3C(=O)NC1CCCCC1` (centres unmarked) stands 4.87%; under `O=c1cc(N2CCC(Cc3ccccc3)CC2)[nH]c(=O)n1C1CCCCC1`, 10.3%; under `Cc1nn(C)c(C(=O)Nc2ccc(Cn3cccn3)cc2)c1[N+](=O)[O-]`, -7.07%.
With `O=C(Oc1cc(=O)oc2c1c(=O)n1c3c(cccc23)CC1)c1ccccc1` the figure was 1.43%.
For the compound `CN(CC(=O)Nc1ccc(Cl)cc1)C(=O)CCC1CCCC1`, the “hERG current change (%, negative = inhibition) at 10uM” value worked out at 13.2%.
`CCn1c(SCC(=O)c2ccc(Cl)cc2)nnc1C(C)C`: the “hERG current change (%, negative = inhibition) at 10uM” value was -2.46%.
With `O=C(NC1CCCC1)c1csc2c1CCCC2` the figure was -4.53%.
With `CCn1cc(CNC(=S)Nc2cccc3ccccc23)cn1` the figure was 0.0822%; with `CC(C)c1ccccc1NC(=O)Cn1c(/C=C/c2ccccc2)nc2ccccc21`, 24.7%; with `CC(=O)N(CCC(Cc1ccccc1)c1ccc2c(c1)OCO2)Cc1ccccc1F` (centres unmarked), 7.53%.
Under `O=C(O)c1cc(-c2ccc(Cl)cc2)n(-c2ccc(Cl)cc2)n1` stands 38.2%.
Consider `Cc1ccc(C2(COC(=O)C(C)C)CO2)c(OC(=O)C(C)C)c1` (centres unmarked), for which the “hERG current change (%, negative = inhibition) at 10uM” value stood at 2.15%.
With `Cc1ccc(-c2cc(C(=O)O)n[nH]2)s1` the figure was 11.5%.
Under `O=C(CC1C(=O)CCCC1=O)c1ccccc1` stands 25.1%; under `Cc1ccc(-n2cc(C(=O)c3ccc4ccccc4c3O)cn2)cc1`, 8.15%.
Under `Cc1cc(OCCOCCN(C)C)ccc1Cl.O=C(O)C(=O)O` stands -9.75%; under `COc1cccc2c1OCC(C(=O)Nc1nccs1)=C2`, -0.366%; under `COCCNCC(=O)N1c2ccccc2Sc2ccccc21`, 3.39%.
For the compound `CC(=O)c1c(C)[nH]c(C(=O)COc2cc(C)cc(C)c2)c1C`, the “hERG current change (%, negative = inhibition) at 10uM” value is 10.3%.
Under `O=C1Nc2cc(Cl)cnc2N2CCCC12` (centres unmarked) stands -9.32%; under `CCOC(=O)[C@@H]1[C@H]2COc3ccccc3[C@@H]2N2C(=O)N(c3ccc(F)cc3)C(=O)[C@]12C`, -2.61%; under `O=C(CSc1nc2ccccc2s1)Nc1ccc(Cl)c(C(=O)O)c1`, 7.61%.
With `Cc1ccc(C)c(CN2C(=O)C(C)Oc3ccc(C)cc32)c1` (centres unmarked) the figure was 5.67%; with `Cc1nn(CCCC(=O)NCc2ccccc2)c(=O)c2nn(-c3ccccc3)c(C)c12`, 4.95%.
As to `O=C1CCCN1CCCn1cnc2c([nH]c3ccc(F)cc32)c1=O`, the “hERG current change (%, negative = inhibition) at 10uM” value is given as -42.2%.
With `CN(C)S(=O)(=O)c1cccc(NC(=O)c2ccc(S(=O)(=O)N3CCCCC3)cc2)c1` the figure was 8.47%.
With `CCOC(=O)c1nn(-c2ccccc2)c2nnc(Cc3ccc(C)cc3)c(=O)n12` the figure was -30.2%.
With `Cc1nn(Cc2ccccc2)c(Cl)c1/C=C/C(=O)OCC(=O)NC(C)C(C)C` (centres unmarked) the figure was 16%; with `COc1ccc(S(=O)(=O)N2CCOC23CCN(S(=O)(=O)c2ccc(C)cc2)CC3)cc1`, -1.28%; with `C[C@@H]1NC(=O)N(c2ccc(F)cc2)C1=O`, 14.7%.

For the origin of these results see PMC4336329 (PLoS ONE, 2015).
